# Some of the results follow. Viral Rep nickase domains cut single-stranded DNA in vitro (3 µM enzyme, 1 h, 37 °C); shown is the middle of each 90-letter strand. Numbers give uncut DNA relative to the enzyme-free pool, as log2; strong cutting gives strongly negative numbers. There is no active / inactive call. Because reads are shares of a total, they shift together; where an enzyme cuts many sequences, the uncut ones exceed 0.
# System: T1, Rep nickase domain of maize striate mosaic virus
# T1 sequence (residues 1-117 of Rep, tag left off): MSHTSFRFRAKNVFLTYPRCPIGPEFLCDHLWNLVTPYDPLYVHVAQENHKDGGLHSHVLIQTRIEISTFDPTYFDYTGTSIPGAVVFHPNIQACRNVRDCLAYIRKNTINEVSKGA
# Test: uncleaved DNA left, log2 of reads against the no-enzyme library (log2 ratio); higher = less cleavage (more negative = more Rep cleavage of the k-mer); sequences stand for … in CTCGTCCG…ACCGGAGA
# Procedure: (§1)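 A pool of 90-nt single-stranded DNAs with seven random bases just before the constant AC of the nick site (name = the seven bases) was cut by 3 µM recombinant His6-SUMO-tagged Rep nickase domain (300 nM DNA, 50 mM HEPES pH 8.0, 50 mM NaCl, 1 mM MnCl2, 1 h, 37 °C, three replicates). Uncut DNA was amplified and sequenced.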
row,Sequence,uncleaved DNA left (log2)
1,CACGTGG,-0.313
2,CCGGTAT,1.47
3,GAAAATG,-0.434
4,GATGAGG,1.02
5,CGCTATC,-0.406
6,GATCTGT,1.1
7,GCATTCG,-0.517
8,GTAGCCT,1.63
9,TTCTAAC,-0.193
10,AGCTATA,0.173
11,GTCGTTA,1.53
12,AGTCCTC,0.633
13,CAAATAT,-1.16
14,GTGGAAT,2.21
15,TCTCTCG,-0.879
16,GCGACTG,1.79
17,ATGTTTG,-1.03
18,CCGTCAC,-0.504
19,AATACTC,-0.537
20,CATGCCG,-0.751

row,Sequence,uncleaved DNA left (log2)
1,ACACGAA,-1.06
2,GGTTCCC,1.52
3,GAAAAGA,-0.139
4,AGAGGGG,0.826
5,ATACTGC,-0.915
6,ACGTACT,-0.746
7,AAACACT,-0.948
8,GTTCGCG,-0.717
9,CTATTCC,-0.653
10,TGGAGAT,2.06
11,TCGATTA,-0.355
12,TAAGCGC,-1.08
13,TGGGAGA,2.04
14,GATACTG,1.34
15,TACATTT,-1.09
16,TAAACTA,-0.651
17,AGCAACT,1.51
18,CATATAC,-1.04
19,AGCTGAG,-0.959
20,TTGAAAG,-1.19

# System: T2, Rep nickase domain of porcine circovirus 2
# T2 sequence (residues 2-116 of Rep, tag left off): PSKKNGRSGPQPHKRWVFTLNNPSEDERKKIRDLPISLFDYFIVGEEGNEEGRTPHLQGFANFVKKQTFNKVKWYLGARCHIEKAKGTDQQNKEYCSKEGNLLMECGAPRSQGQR
# Test: as above
# Procedure: as §1
row,Sequence,uncleaved DNA left (log2)
1,CACGTGG,0.0516
2,CCGGTAT,0.0223
3,GAAAATG,0.184
4,GATGAGG,0.111
5,CGCTATC,0.0212
6,GATCTGT,0.0602
7,GCATTCG,0.0605
8,GTAGCCT,-0.011
9,TTCTAAC,0.00539
10,AGCTATA,-0.873
11,GTCGTTA,-0.0797
12,AGTCCTC,-0.114
13,CAAATAT,-0.381
14,GTGGAAT,0.201
15,TCTCTCG,0.0867
16,GCGACTG,0.0755
17,ATGTTTG,0.219
18,CCGTCAC,0.0187
19,AATACTC,-0.107
20,CATGCCG,0.0733

row,Sequence,uncleaved DNA left (log2)
1,ACACGAA,0.0616
2,GGTTCCC,-1.74
3,GAAAAGA,0.131
4,AGAGGGG,0.394
5,ATACTGC,0.242
6,ACGTACT,-3.65
7,AAACACT,-0.671
8,GTTCGCG,0.08
9,CTATTCC,0.0966
10,TGGAGAT,0.237
11,TCGATTA,-0.235
12,TAAGCGC,0.11
13,TGGGAGA,0.307
14,GATACTG,0.163
15,TACATTT,-3.55
16,TAAACTA,-0.218
17,AGCAACT,-0.101
18,CATATAC,0.119
19,AGCTGAG,0.41
20,TTGAAAG,0.186

# System: T3, Rep nickase domain of tomato golden mosaic virus
# T3 sequence (residues 1-124 of Rep, tag left off): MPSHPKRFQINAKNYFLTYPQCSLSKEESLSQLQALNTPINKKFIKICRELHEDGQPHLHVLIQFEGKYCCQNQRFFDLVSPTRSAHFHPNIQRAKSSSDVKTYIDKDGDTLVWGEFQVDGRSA
# Test: as above
# Procedure: as §1
row,Sequence,uncleaved DNA left (log2)
1,CACGTGG,-0.02
2,CCGGTAT,0.178
3,GAAAATG,0.069
4,GATGAGG,0.13
5,CGCTATC,-0.0995
6,GATCTGT,0.0849
7,GCATTCG,-0.148
8,GTAGCCT,0.0569
9,TTCTAAC,-0.0276
10,AGCTATA,-0.00629
11,GTCGTTA,-0.0085
12,AGTCCTC,-0.12
13,CAAATAT,-0.213
14,GTGGAAT,0.17
15,TCTCTCG,0.0736
16,GCGACTG,0.0284
17,ATGTTTG,0.164
18,CCGTCAC,-0.219
19,AATACTC,-0.11
20,CATGCCG,-0.00421

row,Sequence,uncleaved DNA left (log2)
1,ACACGAA,0.1
2,GGTTCCC,-0.119
3,GAAAAGA,0.0833
4,AGAGGGG,0.188
5,ATACTGC,0.121
6,ACGTACT,-0.189
7,AAACACT,-0.145
8,GTTCGCG,-0.169
9,CTATTCC,-0.0359
10,TGGAGAT,0.0808
11,TCGATTA,-0.14
12,TAAGCGC,-0.113
13,TGGGAGA,0.0769
14,GATACTG,0.132
15,TACATTT,-0.434
16,TAAACTA,-0.126
17,AGCAACT,0.0646
18,CATATAC,-0.00528
19,AGCTGAG,0.124
20,TTGAAAG,0.0379

# From the supplement of paper PMC7826260
